The results in this text go back to publication PMC4336329 (PLoS ONE, 2015).

Out of some 310,000 compounds screened, about 2,200 (0.71%) showed an effect of 50% or more. The effect is printed as a negative number. The list shows a part of the results.

For this assay, the target named is human ether-à-go-go-related gene (hERG) potassium channel (human, UniProt Q12809). Description: primary screen, population patch clamp on CHO cells stably expressing hERG.
human ether-à-go-go-related gene (hERG) potassium channel, sequence (Q12809 whole entry, looked up): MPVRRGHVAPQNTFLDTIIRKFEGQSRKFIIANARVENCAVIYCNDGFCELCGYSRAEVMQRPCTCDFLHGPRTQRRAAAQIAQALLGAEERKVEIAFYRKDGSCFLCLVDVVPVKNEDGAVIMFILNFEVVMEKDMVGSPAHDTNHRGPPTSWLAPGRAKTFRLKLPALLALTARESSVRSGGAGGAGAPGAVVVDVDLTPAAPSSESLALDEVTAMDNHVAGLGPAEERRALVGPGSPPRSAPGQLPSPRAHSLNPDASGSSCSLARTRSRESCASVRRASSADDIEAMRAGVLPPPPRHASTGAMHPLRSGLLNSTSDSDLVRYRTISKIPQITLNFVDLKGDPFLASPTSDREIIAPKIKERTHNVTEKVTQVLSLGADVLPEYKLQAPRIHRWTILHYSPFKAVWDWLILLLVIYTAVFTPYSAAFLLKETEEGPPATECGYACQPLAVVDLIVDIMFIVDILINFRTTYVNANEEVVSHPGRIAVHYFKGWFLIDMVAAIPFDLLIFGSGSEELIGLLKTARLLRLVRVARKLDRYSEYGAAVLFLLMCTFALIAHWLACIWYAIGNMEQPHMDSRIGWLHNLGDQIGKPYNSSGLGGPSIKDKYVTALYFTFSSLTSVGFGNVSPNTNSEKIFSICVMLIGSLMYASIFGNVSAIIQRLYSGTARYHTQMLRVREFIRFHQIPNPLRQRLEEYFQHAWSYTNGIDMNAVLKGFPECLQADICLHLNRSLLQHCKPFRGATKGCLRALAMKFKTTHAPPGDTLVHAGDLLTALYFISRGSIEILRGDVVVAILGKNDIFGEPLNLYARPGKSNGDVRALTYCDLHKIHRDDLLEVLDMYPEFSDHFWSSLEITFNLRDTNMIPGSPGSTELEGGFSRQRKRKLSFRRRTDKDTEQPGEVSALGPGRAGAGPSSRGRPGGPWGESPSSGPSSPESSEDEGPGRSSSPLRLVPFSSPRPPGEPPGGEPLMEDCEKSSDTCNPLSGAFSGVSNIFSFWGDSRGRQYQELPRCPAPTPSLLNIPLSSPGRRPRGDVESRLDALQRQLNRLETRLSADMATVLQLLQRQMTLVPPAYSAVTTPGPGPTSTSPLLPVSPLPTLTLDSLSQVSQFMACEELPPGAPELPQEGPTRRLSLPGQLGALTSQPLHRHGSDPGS
Take `Cl.Oc1ccccc1CNCc1ccccc1`: the “hERG current change (%, negative = inhibition) at 1uM” value is 11.3%. Regarding `CCCc1ccc(-c2cc(N)n[nH]2)cc1`, the “hERG current change (%, negative = inhibition) at 1uM” value was determined as 18.3%.

On to `COc1ccc([C@H]2CC(=O)C=C(c3c(C)cc(C)cc3C)C2)cc1`, for which the “hERG current change (%, negative = inhibition) at 1uM” value was 11.6%. For `O=C(CN(Cc1ccccc1Cl)C(=O)c1csnn1)NC1CCCC1`, the “hERG current change (%, negative = inhibition) at 1uM” value is listed as -5.99%. The value for `CC(=O)Nc1ccccc1OCc1cnc(Cl)s1` was 11.9%; that for `COc1ccc([N+](=O)[O-])cc1NC(=O)c1ccc(N2C(=O)CCC2=O)cc1` was 12.9%; that for `O=C(Cc1ccc(Cl)cc1)Nc1ccccc1N1CCN(C(=O)c2ccccc2)CC1` was -18.5%. `O=C(CCN1C(=O)/C(=C\c2ccco2)SC1=S)Nc1ccc(C(=O)O)c(O)c1`: the “hERG current change (%, negative = inhibition) at 1uM” value stood at 10.1%.

Turning to `O=C(COc1cc2oc(=O)c3c(c2cc1Cl)CCCC3)NCC1CCC(C(=O)O)CC1` (stereo not drawn), the “hERG current change (%, negative = inhibition) at 1uM” value came out at 14.7%. For `CCOc1ccc(C(=O)Nc2cc(OC)ccc2OC)cc1`, the “hERG current change (%, negative = inhibition) at 1uM” value is reported as 6.29%.

In the case of `O=C(CCC1CCCCC1)N1CCN(Cc2ccc3c(c2)OCO3)CC1`, the “hERG current change (%, negative = inhibition) at 1uM” value was -7.06%. On to `CN1C(=O)c2cccc3c(S(=O)(=O)N4CCCC4C(=O)O)ccc1c23` (stereo not drawn), for which the “hERG current change (%, negative = inhibition) at 1uM” value is 14.7%.

Turning to `COc1ccc(-c2nnn(CC(=O)N(CC(=O)NC3CCCC3)c3ccccc3)n2)cc1OC`, the “hERG current change (%, negative = inhibition) at 1uM” value was -5.84%.

`N#Cc1ccccc1S(=O)(=O)N1CCN(C(=O)CCC2CCCC2)CC1`: the “hERG current change (%, negative = inhibition) at 1uM” value worked out at 7.68%. In the case of `Cc1c(C(=O)N2CCN(Cc3ccccc3)CC2)oc2c1C(=O)CC(C)(C)C2`, the “hERG current change (%, negative = inhibition) at 1uM” value is on record as 15.7%. For `COc1cccc(/C=N/NC(=O)CNC(=O)C(c2ccccc2)c2ccccc2)c1O`, the “hERG current change (%, negative = inhibition) at 1uM” value is 20.3%. As for `Cc1cc(NC(=S)N(CCCN2CCN(C)CC2)Cc2ccco2)ccc1Cl`, the “hERG current change (%, negative = inhibition) at 1uM” value is reported as -11.7%. With `Cc1ccc(CNC(=O)CN(Cc2ccccc2)S(C)(=O)=O)cc1` the figure was -3.4%. For the molecule `COCCOC(=O)c1c(N)n(Cc2ccc(OC)cc2)c2nc3ccccc3nc12`, the “hERG current change (%, negative = inhibition) at 1uM” value is recorded as -33.4%. For `Cc1nc2ccccc2n1C(=O)c1ccc(Cl)cc1[N+](=O)[O-]`, the “hERG current change (%, negative = inhibition) at 1uM” value is given as 16%.

For `CCN(CC)S(=O)(=O)c1ccc(Cl)c(NC2=NCCCCC2)c1`, the “hERG current change (%, negative = inhibition) at 1uM” value is listed as 5.6%.

Consider `CCOc1cc2c3c(c1)C(C)=CC(C)(C)N3C(=O)C2=O`, for which the “hERG current change (%, negative = inhibition) at 1uM” value was found to be 11.7%. Consider `CCCCC(=O)N(c1ccc(OCC)cc1)C1C=CS(=O)(=O)C1` (stereo not drawn), for which the “hERG current change (%, negative = inhibition) at 1uM” value is 9.96%. With `COc1ccccc1CCN=C(N)NS(=O)(=O)c1cccs1` the figure was -5.86%; with `CC1=NN(c2ccccc2)C(=O)/C1=C\C=C\c1ccccc1`, 5.77%. Take `Cc1nn(-c2ccccc2)c(Cl)c1C(=O)NCC(C)C`: the “hERG current change (%, negative = inhibition) at 1uM” value is given as -5.48%.

Consider `NNC(=O)CSCc1nc(-c2ccccc2)cs1`, for which the “hERG current change (%, negative = inhibition) at 1uM” value was 6.96%. In the case of `Cc1oc(-c2cc(F)cc(F)c2)nc1CN1CCN(C(=O)c2ccco2)CC1`, the “hERG current change (%, negative = inhibition) at 1uM” value came to 0.472%. Consider `CCC(=O)c1ccccc1OCCCCn1cncn1.O=C(O)C(=O)O`, for which the “hERG current change (%, negative = inhibition) at 1uM” value worked out at 10.5%. The value for `CCn1cc(C2=NOC(C(=O)Nc3ccc4c(c3)OCO4)C2)c(C)n1` (stereo not drawn) was 11%; that for `Cc1cc(C(=O)Nc2nnc(C3CCCCC3)s2)cs1` was 8.41%. `COc1ccc(N2C3=[N+](CC2(C)O)c2ccccc2CC3)cc1.[Br-]` (stereo not drawn): the “hERG current change (%, negative = inhibition) at 1uM” value is on record as -2.55%. As for `CC1(C)CCCN(C(=O)N2c3ccccc3Sc3ccccc32)C1`, the “hERG current change (%, negative = inhibition) at 1uM” value turned out to be 12%. In the case of `Nc1cc(S(=O)(=O)Nc2ccc(Cl)cc2)ccc1N1CCOCC1`, the “hERG current change (%, negative = inhibition) at 1uM” value amounted to 13.7%. The value for `CCOc1ccc(NC(=O)Nc2cccnc2)cc1` was -0.908%. With `COc1ccc(CC(=O)N(Cc2cc3cc(OC)ccc3[nH]c2=O)C(C)C)cc1`, the “hERG current change (%, negative = inhibition) at 1uM” value is -9.97%.

Turning to `COC(=O)CC(N)c1ccc(OC)c2ccccc12.Cl` (stereo not drawn), the “hERG current change (%, negative = inhibition) at 1uM” value is listed as -0.973%. With `COc1ccc(CNC(=O)c2cccnc2Sc2ccc(C)c(C)c2)cc1` the figure was 14.1%; with `Cc1cc(C(=O)CS(=O)(=O)c2ccc(F)cc2)cc(C)c1O`, 12.6%; with `CC(C)OCC(O)Cn1c(N2CCCC2)nc2c1c(=O)n(C)c(=O)n2C` (stereo not drawn), 15.5%.

Regarding `C/C(CC(=O)NC1CCCCC1)=N\NC(=O)COc1ccc(C)cc1Br`, the “hERG current change (%, negative = inhibition) at 1uM” value is 9.88%. As for `O=C(CCSc1nc(-c2ccco2)cc(C(F)(F)F)n1)NCc1cccs1`, the “hERG current change (%, negative = inhibition) at 1uM” value is listed as 5%. Turning to `Oc1c(Cl)cc(Cl)cc1/C=N/Nc1ncc(Br)cn1`, the “hERG current change (%, negative = inhibition) at 1uM” value stood at 14.9%.

Turning to `CC(CC(=O)NCc1cccnc1)c1ccccc1` (stereo not drawn), the “hERG current change (%, negative = inhibition) at 1uM” value is 11.8%.

Consider `N#Cc1ccc(NC(=O)CSc2cn[nH]n2)cc1`, for which the “hERG current change (%, negative = inhibition) at 1uM” value is on record as 18.1%. Regarding `NC(=S)N/N=C/c1ccc(-c2cc(Cl)c(Cl)cc2Cl)o1`, the “hERG current change (%, negative = inhibition) at 1uM” value stood at 14.2%. For the molecule `O=C(NCCCN1CCOCC1)c1onc(CSc2ccccn2)c1C(=O)NCCCN1CCOCC1`, the “hERG current change (%, negative = inhibition) at 1uM” value stood at 12.1%. With `COC(=O)C1=NN(c2cccc3ccccc23)C2C(=O)N(c3ccccc3OC)C(=O)C12` (stereo not drawn), the “hERG current change (%, negative = inhibition) at 1uM” value came out at 0.143%.

For `Cc1nc2ccccc2c(=O)n1-c1ccc(F)c(NC(=O)c2cccs2)c1`, the “hERG current change (%, negative = inhibition) at 1uM” value is reported as 1.13%. As to `CCOc1cccc(C(=O)NC(=S)Nc2cccc(NC(=O)c3ccccc3Cl)c2)c1`, the “hERG current change (%, negative = inhibition) at 1uM” value is recorded as 7.8%. For the molecule `Cn1c(=O)oc2cc(S(=O)(=O)Nc3ccc(Cl)cc3)ccc21`, the “hERG current change (%, negative = inhibition) at 1uM” value was 13.2%.

Take `CC(OC(=O)c1cccs1)C(=O)NC1CC1` (stereo not drawn): the “hERG current change (%, negative = inhibition) at 1uM” value came out at 7.03%. `COc1ccc(S(=O)(=O)N2CCC(C(=O)N3CCCCC3)CC2)cc1`: the “hERG current change (%, negative = inhibition) at 1uM” value is given as 16%. For `CCCC(NC(=O)CCl)c1ccccc1` (stereo not drawn), the “hERG current change (%, negative = inhibition) at 1uM” value was found to be 7.35%. With `CS(=O)(=O)N1CCN(C(=O)c2cc3ccccc3oc2=O)CC1`, the “hERG current change (%, negative = inhibition) at 1uM” value was 4.23%.

Take `COC(=O)c1cc(OC)c(OC)cc1NC(=O)CC1CCCCC1`: the “hERG current change (%, negative = inhibition) at 1uM” value was 12.7%. Consider `CC(C)N1C(=O)c2ccccc2N(Cc2ccccc2)S1(=O)=O`, for which the “hERG current change (%, negative = inhibition) at 1uM” value is listed as 15.5%. The value for `CC(C)(CC(=O)OCC(=O)Nc1ccccc1F)CC1=NS(=O)(=O)c2ccccc2N1` was 5.91%; that for `CN(CC(=O)Nc1ccc(F)cc1)C(=O)COC(=O)/C=C/c1cccs1` was 14%. With `CCc1ccc(OCC(=O)NC(NC(=S)Nc2ccc(Cl)cc2)C(Cl)(Cl)Cl)cc1` (stereo not drawn), the “hERG current change (%, negative = inhibition) at 1uM” value was determined as 12.1%.

With `COc1cc(OC)cc(C(=O)N[C@H](C(=O)OCC(=O)Nc2ccc(C(N)=O)cc2)C(C)C)c1`, the “hERG current change (%, negative = inhibition) at 1uM” value is recorded as -8.7%. Regarding `C/C=C(/C)C(=O)OC(C)(C)[C@@H]1Cc2c(ccc3ccc(=O)oc23)O1`, the “hERG current change (%, negative = inhibition) at 1uM” value came to 0.275%. For the molecule `O=C(CSc1nc2c([nH]c3ccccc32)c(=O)n1-c1ccccc1)NCC1CCCO1` (stereo not drawn), the “hERG current change (%, negative = inhibition) at 1uM” value turned out to be 5.59%.
